# Reference: the supplement of paper PMC12217912
# Some of the results follow. The full chains were built here from the parent and the listed change. Inactive controls read about 0.05.
# B1: TEV protease; numbered along this chain (parent)
# chain: MGESLFKGPRDYNPISSSICHLTNESDGHTTSLYGIGFGPFIITNKHLFRRNNGTLVVQSLHGVFKVKDTTTLQQHLVDGRDMIIIRMPKDFPPFPQKLKFREPQREERICLVTTNFQTKSMSSMVSDTSCTFPSGDGIFWKHWIQTKDGQCGSPLVSTRDGFIVGIHSASNFTNTNNYFTSVPKNFMELLTNQEAQQWVSGWRLNADSVLWGGHKVFMVKPEEPFQPVKEATQL
# Variants of: B1
# Experiment: raw area under fraction-flipped curve 0-4 h after induction (AUC4h, not background-subtracted), DNA-recorder readout of cleavage of the substrate (dimensionless); higher = more cleavage of the substrate by the protease variant
# Conditions: temperature: 34 °C; time window: 0-4 h after rhamnose induction
# Description: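 In vivo DNA recorder in E. coli TOP10(DE3) ΔrhaA at 34 °C. Each TEVp single-site mutant (parent TEVp 0) is paired with a single-site variant of the 7-mer TEVs (canonical ENLYFQ|S). The substrate sits between flexible linkers in a Bxb1-sfGFP-TEVs-SsrA fusion, so cleavage stabilises Bxb1 and speeds flipping of a recombination array, read by NGS. The value is the raw area under the fraction-flipped curve over 0-4 h after rhamnose induction (AUC4h), with ≥20 reads per time point. It is not background-subtracted; inactive controls average about 0.047.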
# 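Note: Bxb1 expression induced with 0.2% (w/v) L-rhamnose at OD600 near 0.5, cultures sampled hourly, flipped fraction per protease–substrate barcode pair counted by paired-end Illumina sequencing.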
Variant,area with substrate ENLYFAS,area with substrate ENLYFCS,area with substrate ENLYFDS,area with substrate ENLYFFS,area with substrate ENLYFGS,area with substrate ENLYFIS,area with substrate ENLYFKS,area with substrate ENLYFNS,area with substrate ENLYFPS,area with substrate ENLYFRS,area with substrate ENLYFTS,area with substrate ENLYFES,area with substrate ENLYFHS,area with substrate ENLYFLS,area with substrate ENLYFMS,area with substrate ENLYFVS,area with substrate ENLYFYS,area with substrate ENLYFWS,area with substrate ENLYFSS
MGESLFKGPRDYNPISSSICHLTNESDGHTTSLYGIGFGPFIITNKHLFRRNNGTLVVQSLHGVFKVKDTTTLQQHLVDGRDMIIIRMPKDFPPFPQKLKFREPQREERICLVTTNFQTKSMSSMVSDTSCTFPSGDGIFWKHWIQTKDGQCGSPLVSTRDGFIVGIHSASNFTNTNNYFTSVPKNFMELLTNQEAQQWVSGWRLNADSVLWGGHKVFMVKPEEKFQPVKEATQL [P225K],0.0526,0.0526,0.0892,0.073,0.0576,0.0534,0.0634,0.0861,0.0671,0.0645,0.0677,–,–,–,–,–,–,–,–
MGESLFKGPRDYNPISSSICHLTNESDGHTTSLYGIGFGPFIITNKHLFRRNNGTLVVQSLHGVFKVKDTTTLQQHLVDGRDMIIIRMPKDFPPFPQKLKFREPQREERICLVTTNFQTKSMSSMVSDTSCTFPSGDGIFWKHWIQTKDGQCGSPLVSTRDGFIVGIHSASNFTNTNNYFTSVPKNFMELLTNQEAQQWVSGWRLNADSVLWGGHKVFMVKPEECFQPVKEATQL [P225C],0.0672,0.0602,0.0633,0.0745,–,–,–,0.0857,0.0602,0.0673,0.0597,0.0618,0.0619,0.0598,0.0609,0.0695,0.068,–,–
MGESLFKGPRDYNPISSSICHLTNESDGHTTSLYGIGFGPFIITNKHLFRRNNGTLVVQSLHGVFKVKDTTTLQQHLVDGRDMIIIRMPKDFPPFPQKLKFREPQREERICLVTTNFQTKSMSSMVSDTSCTFPSGDGIFWKHWIQTKDGQCGSPLVSTRDGFIVGIHSASNFTNTNNYFTSVPKNFMELLTNQEAQQWVSGWRLNADSVLWGGHKVFMVKPEEPFQPEKEATQL [V229E],0.0581,–,0.0636,0.0471,–,0.0547,0.049,0.0628,0.0536,0.052,0.0615,0.0441,0.0736,0.074,0.0685,0.0527,0.0579,0.0523,–
MGESLFKGPRDYNPISSSICHLTNESDGHTTSLYGIGFGPFIITNKHLFRRNNGTLVVQSLHGVFKVKDTTTLQQHLVDGRDMIIIRMPKDFPPFPQKLKFREPQREERICLVTTNFQTKSMSSMVSDTSCTFPSGDGIFWKHWIQTKDGQCGSPLVSTRDGFIVGIHSASNFTNTNNYFTSVPKNFMELLTNQEAQQWVSGWRLNADSVLWGGHKVFMVKPEEPFQPVKEATQQ [L235Q],0.0654,0.0543,–,0.0801,–,0.0544,–,0.0674,0.0485,0.0635,0.055,0.0629,–,0.0524,0.0715,0.0607,–,–,–
MGESLFKGPRDYNPISSSICHLTNESDGHTTSLYGIGFGPFIITNKHLFRRNNGTLVVQSLHGVFKVKDTTTLQQHLVDGRDMIIIRMPKDFPPFPQKLKFREPQREERICLVTTNFQTKSMSSMVSDTSCTFPSGDGIFWKHWIQTKDGQCGSPLVSTRDGFIVGIHSASNFTNTNNYFTSVPKNFMELLTNQEAQQWVSGWRLNADSVLWGGHKVFMVKPNEPFQPVKEATQL [E223N],0.0598,0.0621,0.0115,0.0772,–,0.0561,0.0525,0.0391,0.0596,0.0472,–,0.0688,–,0.0669,0.0619,–,–,0.0471,0.0659
MGESLFKGPRDYNPISSSICHLTNESDGHTTSLYGIGFGPFIITNKHLFRRNNGTLVVQSLHGVFKVKDTTTLQQHLVDGRDMIIIRMPKDFPPFPQKLKFREPQREERICLVTTNFQTKSMSSMVSDTSCTFPSGDGIFWKHWIQTKDGQCGSPLVSTRDGFIVGIHSASNFTNTNNYFTSVPKNFMELLTNQEAQQWVSGWRLNADSVLWGGHKVFMVKPYEPFQPVKEATQL [E223Y],0.0637,0.0556,0.0156,0.0673,–,0.0581,0.0646,0.0728,0.0534,–,0.0606,0.0672,0.0578,–,0.0476,–,–,0.063,0.0479
MGEILFKGPRDYNPISSSICHLTNESDGHTTSLYGIGFGPFIITNKHLFRRNNGTLVVQSLHGVFKVKDTTTLQQHLVDGRDMIIIRMPKDFPPFPQKLKFREPQREERICLVTTNFQTKSMSSMVSDTSCTFPSGDGIFWKHWIQTKDGQCGSPLVSTRDGFIVGIHSASNFTNTNNYFTSVPKNFMELLTNQEAQQWVSGWRLNADSVLWGGHKVFMVKPEEPFQPVKEATQL [S4I],–,0.0706,0.0405,0.0641,0.0477,–,0.0562,0.0623,0.0731,0.0604,0.0614,0.056,0.0689,–,0.0819,–,0.0411,0.0539,0.0709
MGESLFKGPRDYNPISSSICHLTNESDGHTTSLYGIGFGPFIITNKHLFRRNNGTLVVQSLHGVFKVKDTTTLQQHLVDGRDMIIIRMPKDFPPFPQKLKFREPQREERICLVTTNFQTKSMSSMVSDTSCTFPSGDGIFWKHWIQTKDGQCGSPLVSTRDGFIVGIHSASNFTNTNNYFTSVPKNFMELLTNQEAQQWVSGWRLNADSVLWGGHKVFMVKPEEPFQPVKEAMQL [T233M],0.0502,0.0699,–,0.0636,–,0.0508,0.0495,0.0612,0.0604,0.0624,0.0607,0.0532,0.0607,0.0625,0.0699,0.073,0.057,–,–
MGESLFKGPRDYNPISSSICHLTNESDGHTTSLYGIGFGPFIITNKHLFRRNNGTLVVQSLHGVFKVKDTTTLQQHLVDGRDMIIIRMPKDFPPFPQKLKFREPQREERICLVTTNFQTKSMSSMVSDTSCTFPSGDGIFWKHWIQTKDGQCGSPLVSTRDGFIVGIHSASNFTNTNNYFTSVPKNFMELLTNQEAQQWVSGWRLNADSVLWGGHKVFMVKPEEPFQPVKEAQQL [T233Q],0.0714,–,–,0.0678,0.0447,0.0475,–,0.0718,0.0647,–,–,0.0464,–,–,–,0.0595,–,0.0724,–
